Assay results reported in PubChem BioAssay AID504332 (National Center for Advancing Translational Sciences (NCATS), 2011).
Hit rate of the full screen: of about 350,000 compounds, about 31,000 (8.9%) were called active. This list was built around the results that the source calls inconclusive (neither active nor inactive); the mix of calls is not that of the screen. The call rests on the fitted dose curve; in most records, active means well fitted inhibition curve with a large enough effect; inconclusive means small, poorly fitted or top-dose-only effect; inactive means no such curve, though single readings can be large or run the other way. Where the call is inconclusive, the potency comes from a doubtful curve fit.

Target: Histone-lysine N-methyltransferase EHMT2 (Homo sapiens) (UniProt Q96KQ7)
Test: qHTS Assay for Inhibitors of Histone Lysine Methyltransferase G9a; further: nearly all actives have a fitted effect of over 75% in size
Settings: G9a H3K9 monomethylation, AlphaScreen, 2 h; activity, negative = inhibition: at 59 µM (top of the series) unless noted
Summary of the method: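 Quantitative HTS format: methyltransferase activity on a biotin-tagged H3K9 peptide is measured by AlphaScreen, using a rabbit anti-monomethyl-H3K9 antibody with streptavidin donor and anti-IgG acceptor beads. Final levels are 20 nM enzyme, 500 nM peptide, 20 uM SAM; 2 h RT.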
On the % scale 0 is the no-effect control and ±100 the full control effect; potency means the concentration at half of the fitted maximal effect; tags describe the fitted curve by direction and shape.

UniProt Q96KQ7, sequence (Q96KQ7 whole entry, looked up): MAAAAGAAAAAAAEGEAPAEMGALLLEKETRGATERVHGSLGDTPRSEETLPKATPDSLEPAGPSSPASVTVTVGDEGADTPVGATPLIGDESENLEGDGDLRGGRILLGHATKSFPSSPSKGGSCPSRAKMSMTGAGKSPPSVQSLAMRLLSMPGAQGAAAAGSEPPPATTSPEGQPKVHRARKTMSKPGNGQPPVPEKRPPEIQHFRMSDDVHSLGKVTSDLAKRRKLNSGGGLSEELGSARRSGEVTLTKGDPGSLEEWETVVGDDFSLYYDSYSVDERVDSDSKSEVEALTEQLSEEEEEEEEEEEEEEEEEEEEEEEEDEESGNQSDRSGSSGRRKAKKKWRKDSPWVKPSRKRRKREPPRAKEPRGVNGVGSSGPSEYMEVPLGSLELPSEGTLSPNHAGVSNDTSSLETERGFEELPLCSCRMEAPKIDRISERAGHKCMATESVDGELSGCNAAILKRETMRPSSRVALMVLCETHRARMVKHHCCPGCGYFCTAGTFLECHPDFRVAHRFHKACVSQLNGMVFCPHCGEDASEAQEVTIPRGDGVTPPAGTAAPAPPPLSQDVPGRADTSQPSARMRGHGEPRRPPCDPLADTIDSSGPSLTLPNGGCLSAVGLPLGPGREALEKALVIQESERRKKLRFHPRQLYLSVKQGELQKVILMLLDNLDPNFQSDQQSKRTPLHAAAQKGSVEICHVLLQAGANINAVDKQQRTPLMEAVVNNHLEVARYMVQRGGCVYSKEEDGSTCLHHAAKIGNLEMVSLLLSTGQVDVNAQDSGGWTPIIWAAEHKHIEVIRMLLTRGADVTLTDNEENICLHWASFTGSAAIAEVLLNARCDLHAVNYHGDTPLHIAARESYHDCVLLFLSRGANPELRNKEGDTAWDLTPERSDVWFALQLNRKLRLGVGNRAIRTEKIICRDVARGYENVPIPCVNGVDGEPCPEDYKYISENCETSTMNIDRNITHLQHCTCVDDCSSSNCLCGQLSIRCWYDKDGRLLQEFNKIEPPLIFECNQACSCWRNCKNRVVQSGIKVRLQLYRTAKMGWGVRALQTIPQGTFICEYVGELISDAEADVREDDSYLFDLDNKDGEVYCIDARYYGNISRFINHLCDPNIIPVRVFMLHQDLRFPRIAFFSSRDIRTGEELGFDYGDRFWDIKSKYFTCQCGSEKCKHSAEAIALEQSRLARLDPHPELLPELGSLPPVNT

SMILES	Potency	activity, negative = inhibition
CC(=O)Nc1ccc(S(=O)(=O)NC(CC(=O)N(C)Cc2ccccc2)C(C)C)cc1 (stereo not given)	inactive	–
CCOC(=O)N1CCN(CCC(=O)Nc2cccc(C)c2)CC1	inactive	–
Cc1cccn2cc(COc3cccc([N+](=O)[O-])c3)nc12	inactive	–
O=c1cc(CSc2ccccc2)[nH]c(=S)[nH]1	inconclusive: 39.8 µM [inhibitor, single point]	–
O=C(Nc1ccc(F)c([N+](=O)[O-])c1)c1ccc2c(c1)OCCO2	inconclusive: 4.47 µM [inhibitor, single point]	–
COc1ccc(CNC(=O)N[C@@H](CC(C)C)C(=O)O)cc1OC	inconclusive: 89.1 µM [inhibitor, single point]	–
O=c1ccn(-c2ccccc2)[nH]1	inactive	–
CCOC(=O)N1CCN(C(=O)c2ccc(Cn3c(=S)[nH]c4cc5c(cc4c3=O)OCO5)cc2)CC1	active: 7.08 µM	–
O=C(O)C1CCCN(S(=O)(=O)c2ccc(Br)cc2)C1 (stereo not given)	inconclusive: 89.1 µM [inhibitor, single point]	–
Cc1sc2nc(C3CC3)nc(SCC(=O)N3CCc4ccccc4C3)c2c1C	inconclusive: 39.8 µM [inhibitor, single point]	–
Cc1csc(=O)n1CC(=O)OCC(=O)c1ccc(Br)cc1	inconclusive: 56.2 µM [inhibitor, partial curve]	–
CC1CN(C(=O)/C(=C/c2ccco2)NC(=O)c2ccccc2)CC(C)O1 (stereo not given)	active: 35.5 µM	–
O=C(Nc1cccc(C(=O)N2CCOCC2)c1)c1cncc(Br)c1	inconclusive: 31.6 µM [inhibitor, single point]	–
COc1cccc(NS(=O)(=O)c2ccc3[nH]cc(C(=O)N(C)C4CCCCC4)c(=O)c3c2)c1	inconclusive: 28.2 µM [inhibitor, single point]	–
CCn1c(COc2cccc(C)c2)nnc1SCC(=O)NC1CCCC1	inactive	–
Cc1cc(C)c(NC(=S)NCCCSC2CCCCC2)c(C)c1	inconclusive: 25.1 µM [inhibitor, single point]	–
Cc1ccccc1CC(=O)Nc1cc(C(C)(C)C)on1	inactive	–
O=C1C(c2ccccc2)=[N+]([O-])c2ccccc21	–	inactive: -11.1% [at 2.33 µM]
CCCN1CCCc2cc(CN(CCCN3CCOCC3)C(=O)Nc3ccc(CC)cc3)ccc21	active: 12.6 µM	–
COc1cc(C2CC(=O)Nc3c2c(=O)[nH]c2ncnn32)ccc1O (stereo not given)	inconclusive: 25.1 µM [inhibitor, partial curve, poor fit]	–
COc1ccc(NC(=O)CSCC(=O)Nc2ccc(S(=O)(=O)N3CCCCC3)cc2)cc1	inconclusive: 89.1 µM [inhibitor, single point]	–
CC(=O)N1c2ccc(S(=O)(=O)N3CCC(C(=O)NC(C)c4ccccc4)CC3)cc2CC1C (stereo not given)	inconclusive: 89.1 µM [inhibitor, single point]	–
O=C(N/C(=C\c1cccs1)C(=O)N1CCCCCC1)c1ccccc1	–	inconclusive: -69% [inhibitor]

SMILES	Potency	activity, negative = inhibition
Nc1nncn1C(=O)CCCN1C(=O)c2ccccc2C1=O	–	inconclusive: -97.1% [inhibitor]
CCN(CC)S(=O)(=O)c1cc(C(=O)O)ccc1Cl	inconclusive: 1.78 µM [inhibitor, partial curve, poor fit]	–
O=C(Nc1cccc(Cl)c1)c1csnn1	inconclusive: 25.1 µM [inhibitor, partial curve, poor fit]	–
CC(C)CN1C(=O)C(=O)N(CC(=O)c2ccc3c(c2)OCO3)C1=O	inconclusive: 89.1 µM [inhibitor, partial curve, poor fit]	–
COC(=O)NCc1cccc(CNC(=O)OC)c1	inconclusive: 89.1 µM [inhibitor, single point]	–
COC(=O)CN(c1c(C)cccc1C)S(C)(=O)=O	inconclusive: 100 µM [inhibitor, single point]	–
O=Cc1cn(Cc2ccccc2)nc1-c1cccnc1	inactive	–
NC1=C(c2ccc(F)cc2)C(=O)CS1	–	inactive: 11.8% [at 0.501 µM]
CCN1CCN(Cc2c(O)c(Cl)cc3c(C)cc(=O)oc23)CC1	inconclusive: 39.8 µM [inhibitor, single point]	–
Cc1noc(C)c1CSCC(=O)Nc1ccccc1N1CCCCC1	inconclusive: 25.1 µM [inhibitor, full curve, poor fit]	–
N=C1/C(=C\c2ccc(-c3cccc(C(=O)O)c3)o2)C(=O)N=C2SC=C(c3ccccc3)N12	active: 11.2 µM	–
Cc1cn(COC/C=C/c2ccccc2)c(=O)[nH]c1=O	inconclusive: 0.708 µM [inhibitor, full curve, poor fit]	–
O=C(CC1C(=O)NCCN1Cc1cccc(F)c1)NC1CCC1 (stereo not given)	inconclusive: 79.4 µM [inhibitor, single point]	–
CC1CCc2sc(C(=O)NN=C3CCC(c4ccccc4)CC3)cc2C1 (stereo not given)	inactive	–
COc1cccc(C2=CC(c3ccccc3F)n3ncc(C(=O)Nc4ccc(C)cc4)c3N2)c1 (stereo not given)	inconclusive: 20 µM [inhibitor, single point]	–
O=C(Nc1cccc(C(=O)O)c1)/C(=C\c1ccccc1)NC(=O)c1ccccc1Cl	inconclusive: 89.1 µM [inhibitor, single point]	–
Cc1cc(C)n(Cc2cc(C(=O)O)c3ccccc3n2)n1	inconclusive: 8.91 µM [inhibitor, partial curve, poor fit]	–
COc1ccc(/C=N/N2CCN(Cc3ccc(C)cc3)CC2)cc1Br	active: 44.7 µM	–
CCN(CC)c1ccc(CN(C(=O)c2ccco2)C2CCS(=O)(=O)C2)cc1 (stereo not given)	active: 44.7 µM	–
Cc1ccc(NC(=O)CS(=O)CC(=O)NCCCc2ccccc2)cc1Cl (stereo not given)	inconclusive: 3.55 µM [inhibitor, partial curve, poor fit]	–
COCCCn1c(-c2cccc(Cl)c2)nc2c1c(=O)[nH]c(=O)n2Cc1ccccc1	inactive	–
CCCC(=O)N1N=C(c2ccccc2)CC1c1cn(C)c2ccccc12 (stereo not given)	inconclusive: 25.1 µM [inhibitor, single point]	–
